± gives the standard deviation. This is a selection; strong and weak results do not stand in their true shares.
System: MIWI (PIWIL1) piRISC loaded with piRNA #1 (30 nt)
Experiment: pre-steady-state target cleavage rate (min^-1); MIWI and MILI are mouse PIWI proteins and EfPiwi is from a freshwater sponge; tags in brackets are library labels; higher = faster piRNA-guided slicing of the target
Settings: guide: piRNA #1 5'p-UGAGGUAGUAGGUUGUAUAGUAUCCAGAGG; auxiliary factor: 500 nM mouse GTSF1
In short: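 The pre-steady-state cleavage rate was calculated from a burst-and-steady-state fit. Data came from Cleave-'n-Seq, in which […] transcribed, DNA-blocked target RNA library was mixed with 1 nM active affinity-purified piRISC carrying one synthetic guide, with or without 500 nM GTSF1 partner protein, in HEPES–potassium acetate buffer at 33 °C for 0–8 or 0–960 min. Uncleaved targets were sequenced and normalised to depth and to weakly complementary targets, three trials were pooled, and k3 was capped at 0.0001 min^-1.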
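Note: 1 nM active piRISC with 0.1 nM target library at 33 °C single turnover.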

Q: For GCUCUGGAUACUAUACAUCCUACUACCUCA, which “pre-steady-state target cleavage rate” value is on record?
A: 1.67 ± 0.091

Q: With GGUCUGGAUUCUAUAGAACCUACUACCUCA as the sequence, how does the “pre-steady-state target cleavage rate” value read?
A: 0.979 ± 0.064

Q: With GGAGACGAUACUAUACAACCUACAACCUCA as the sequence, how does the “pre-steady-state target cleavage rate” value read?
A: 0.766 ± 0.06

Q: With GGAGACCUUACUACUACAACCUACUACCUCA as the sequence, how does the “pre-steady-state target cleavage rate” value read?
A: 0.411 ± 0.051

Q: For CCUGUCGAUACUAUACAACCUACUACCUCA, which “pre-steady-state target cleavage rate” value is on record?
A: 1.57 ± 0.11

Q: For GGAGAGGAUACUAUACAACCUACGUACCUCA, which “pre-steady-state target cleavage rate” value is on record?
A: 0.372 ± 0.051

Q: With GGAGUGGAUACUAUACACCCUACUACCUCA as the sequence, how does the “pre-steady-state target cleavage rate” value read?
A: 1.7 ± 0.098

Q: For GCUCUGGAUACUAAACAACGUACUACCUCA, which “pre-steady-state target cleavage rate” value is on record?
A: 1.06 ± 0.07

Q: How did the “pre-steady-state target cleavage rate” value turn out when GGAGACCAUGACUAUACAACCUACUACCUCA was run?
A: 1.58 ± 0.14

Q: With GGAGACCUAACUAUACAACCUACAACCUCA as the sequence, how does the “pre-steady-state target cleavage rate” value read?
A: 0.378 ± 0.047

Q: How did the “pre-steady-state target cleavage rate” value turn out when GGAGACGAUACUAUACAACCAACUUCCUCA was run?
A: 0.0447 ± 0.0069

Q: How did the “pre-steady-state target cleavage rate” value turn out when GGAGUGGAUACUAUACAACCUACUACCACA was run?
A: 0.51 ± 0.044

Q: For GCUCUGGAUUCUAUACAACCUACAACCUCA, which “pre-steady-state target cleavage rate” value is on record?
A: 0.633 ± 0.041

Q: With GGAGUGGAUUCUAUACAACCUACUACCACA as the sequence, how does the “pre-steady-state target cleavage rate” value read?
A: 0.764 ± 0.048

Q: GGAGACCUAACUAUAUAACCUACUACCUCA was tested. Which “pre-steady-state target cleavage rate” value did it give?
A: 0.878 ± 0.074

Q: How did the “pre-steady-state target cleavage rate” value turn out when GGAGACCUAUCUAUACAACCUACUACCCUCA was run?
A: 0.661 ± 0.06

Q: GGUCUGGAUACUAUACAACCUUCUACCUCA was tested. Which “pre-steady-state target cleavage rate” value did it give?
A: 0.689 ± 0.034

Q: Which “pre-steady-state target cleavage rate” value does the source give for GCUCUGGAUUCUAUACAACCUACUACCUGA here?
A: 0.509 ± 0.071

Q: How did the “pre-steady-state target cleavage rate” value turn out when GGAGACCUAUGAUAUCUUGCUACUACCUCA was run?
A: < 0.0001

Q: GGAGAGCAUACAAUACAACCUACUACCUCA was tested. Which “pre-steady-state target cleavage rate” value did it give?
A: 1.16 ± 0.11

Q: For GGAGACGAUACUAUUCAACCAACUACCUCA, which “pre-steady-state target cleavage rate” value is on record?
A: 0.102 ± 0.0071

Q: How did the “pre-steady-state target cleavage rate” value turn out when GGACUGGAUACUAUAGUACCUACUACCUCA was run?
A: 1.28 ± 0.11

Q: For GCUCUGGAUACUAUGACAACCUACUACCUCA, which “pre-steady-state target cleavage rate” value is on record?
A: 1.6 ± 0.092

Q: For GCUCUGGAUACUAUACAACCUACGUACCUCA, which “pre-steady-state target cleavage rate” value is on record?
A: 0.68 ± 0.087

Q: How did the “pre-steady-state target cleavage rate” value turn out when GGAGAGCAUACUAUACAACCUACUACCUCA was run?
A: 1.78 ± 0.11

Q: For GGAGACCUAUGAUAUCAAGCUACUUCCUCA, which “pre-steady-state target cleavage rate” value is on record?
A: < 0.0001

Q: Which “pre-steady-state target cleavage rate” value does the source give for CAUCUGGAUACUAUACAACCUACUACCUCA here?
A: 1.37 ± 0.066

Q: How did the “pre-steady-state target cleavage rate” value turn out when GGAGACCUAUGUUUACAACCUAGUACCUCA was run?
A: 0.00374 ± 0.0022

Q: With GGAGUGGAUACUAUACAACCUGCUACCUCA as the sequence, how does the “pre-steady-state target cleavage rate” value read?
A: 1.02 ± 0.061

Q: For GGACUGGAUACUAUACAACCUACAACCUCA, which “pre-steady-state target cleavage rate” value is on record?
A: 0.267 ± 0.034

Q: How did the “pre-steady-state target cleavage rate” value turn out when GGAGUGGAUACUAUACAACCUACUGACCUCA was run?
A: 0.489 ± 0.043

Q: How did the “pre-steady-state target cleavage rate” value turn out when “GGAGACCUAACUAUACAACCUACUACCUCG [g2:g21:cont:t1G]” was run?
A: 0.953 ± 0.086

Q: Which “pre-steady-state target cleavage rate” value does the source give for GGAGUGGAUACAUUACAACCUACUACCUCA here?
A: 1.21 ± 0.081

Q: CCUCACCAUACUAUACAACCUACUACCUCA was tested. Which “pre-steady-state target cleavage rate” value did it give?
A: 2.03 ± 0.12

Q: How did the “pre-steady-state target cleavage rate” value turn out when GCUCUGGAUACAAUACUACCUACUACCUCA was run?
A: 1.08 ± 0.075

Q: Which “pre-steady-state target cleavage rate” value does the source give for GCUCUGGAUACUAUUCAACCUACUUCCUCA here?
A: 0.621 ± 0.043

Q: How did the “pre-steady-state target cleavage rate” value turn out when GGAGUGGAUUCUAUACAACCUAGUACCUCA was run?
A: 0.484 ± 0.064

Q: How did the “pre-steady-state target cleavage rate” value turn out when CCUCUGGAUACAAUACAACCUUCUACCUCA was run?
A: 0.672 ± 0.043

Q: How did the “pre-steady-state target cleavage rate” value turn out when GCUCUGGACACUAUACAACCUACUACCUCA was run?
A: 1.57 ± 0.11

Q: With GGACUGGAUAGCUAUACAACCUACUACCUCA as the sequence, how does the “pre-steady-state target cleavage rate” value read?
A: 0.71 ± 0.072
